# Data as given in a collection of fitness landscapes (doi:10.1016/j.celrep.2020.107928).
# Over roughly 81,000 sequences, “one-hybrid fitness for binding parS DNA” has its median near -0.17; the highest 2% begin near 0.51. This is one part of the list.
# B1: Caulobacter ParB omega fusion; a variant is named by its letters at X, in order, B8GW30 (parent)
# chain: MESVVVGEPGMSEGRRGLGRGLSALLGEVDAAPAQAPGEQLGGSREAPIEILQRNPDQPRRTFREEDLEDLSNSIREKGVLQPILVRPSPDTAGEYQIVAGERAWRAAQRAGLKTVPIMVRELDDLAVLEIGIIENVQRADLNVLEEALSYKVLMEKFERTQENIAQTIGKSXSHVANXMRLLXLPDEVQSYLVSGELTAXHARAIAAAADPVALAKQIIEGGLSVRETEALARKAPNLSAGKSKGGRPPRVKDTDTQALESDLSSVLGLDVSIDHRGSTGTLTITYATLEQLDDLCNRLTRGI
# Variants of: B1
# Test: one-hybrid fitness for binding parS DNA (scaled: cognate 1, non-cognate 0); higher = stronger binding
# Settings: with parS DNA site
# Summary of the method: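 Bacterial one-hybrid selection in E. coli USO rpoZ- hisB- pyrF- with a HIS3 reporter carrying the site 19 bp from the promoter, screening Caulobacter ParB libraries with four specificity codons randomised (NNS). Cells grew 48 hours at 37°C on M9-minus-histidine plus 0.1 mM IPTG and 5 mM 3-AT. Plasmids before and after selection were Illumina-sequenced, three replicate libraries pooled, and variants under 10 reads dropped. Fitness is the log change in variant-to-wild-type read ratio, rescaled to cognate 1, non-cognate 0.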
row,Variant,one-hybrid fitness for binding parS DNA
1,QMYK,≤ 0.2
2,EIAA,≤ 0.2
3,CRNA,≤ 0.2
4,SKTH,≤ 0.2
5,TWMG,≤ 0.2
6,FMQR,≤ 0.2
7,WLYA,≤ 0.2
8,SDSG,≤ 0.2
9,RRDM,≤ 0.2
10,NRNK,≤ 0.2
11,QTVR,≤ 0.2
12,RYAA,0.559
13,NFSS,≤ 0.2
14,SWQL,≤ 0.2
15,WCAL,≤ 0.2
16,SMAP,≤ 0.2
17,GRAI,≤ 0.2
18,MFHT,≤ 0.2
19,HLQT,≤ 0.2
20,AKYR,≤ 0.2
21,YPMC,≤ 0.2
22,NDAS,≤ 0.2
23,RPKA,≤ 0.2
24,VMSS,≤ 0.2

row,Variant,one-hybrid fitness for binding parS DNA
1,KWRV,≤ 0.2
2,SKAG,≤ 0.2
3,LPDK,≤ 0.2
4,TPSF,≤ 0.2
5,IGYE,≤ 0.2
6,MWSS,≤ 0.2
7,CFAA,≤ 0.2
8,EHQD,0.289
9,HDQY,≤ 0.2
10,NTQT,≤ 0.2
11,AVSQ,≤ 0.2
12,PQSP,≤ 0.2
13,RCVD,0.203
14,EATV,≤ 0.2
15,LRGD,≤ 0.2
16,ETML,≤ 0.2
17,ASGR,≤ 0.2
18,NYEM,≤ 0.2
19,EPRR,≤ 0.2
20,NLSG,≤ 0.2
21,MHEV,≤ 0.2
22,GYST,≤ 0.2
23,AWES,≤ 0.2
24,PSYN,≤ 0.2

row,Variant,one-hybrid fitness for binding parS DNA
1,YIAQ,≤ 0.2
2,RTLS,1.01
3,QKPV,≤ 0.2
4,PNQI,≤ 0.2
5,WVPC,≤ 0.2
6,AWAR,≤ 0.2
7,CRQC,≤ 0.2
8,KDML,0.21
9,SHNS,≤ 0.2
10,QINH,≤ 0.2
11,FHQR,≤ 0.2
12,PPSV,≤ 0.2
13,RCHL,≤ 0.2
14,ASIR,≤ 0.2
15,PCDA,≤ 0.2
16,DKSV,≤ 0.2
17,RCHA,0.626
18,YFLC,≤ 0.2
19,HRAS,0.383
20,KGSF,≤ 0.2
21,FFNR,≤ 0.2
22,STAV,≤ 0.2
23,DTHM,≤ 0.2
24,PQLT,≤ 0.2

row,Variant,one-hybrid fitness for binding parS DNA
1,DTVG,≤ 0.2
2,RLGV,≤ 0.2
3,KIGE,≤ 0.2
4,VKYR,≤ 0.2
5,CHLR,≤ 0.2
6,TTIH,≤ 0.2
7,TANM,≤ 0.2
8,VTTP,≤ 0.2
9,YTTV,≤ 0.2
10,WCIT,≤ 0.2
11,DMCC,≤ 0.2
12,PAYE,≤ 0.2
13,AWAS,≤ 0.2
14,SGGE,≤ 0.2
15,NTCT,≤ 0.2
16,KPVI,≤ 0.2
17,STYV,≤ 0.2
18,QMDL,≤ 0.2
19,QEPR,≤ 0.2
20,QCGG,≤ 0.2
21,EAST,≤ 0.2
22,YMNR,≤ 0.2
23,NEIW,≤ 0.2
24,STGG,≤ 0.2

row,Variant,one-hybrid fitness for binding parS DNA
1,QDES,≤ 0.2
2,MFNT,≤ 0.2
3,GVTW,≤ 0.2
4,AEMV,≤ 0.2
5,YWLL,≤ 0.2
6,YLAA,≤ 0.2
7,ESEF,≤ 0.2
8,NRIM,≤ 0.2
9,TMKV,≤ 0.2
10,NLTR,≤ 0.2
11,TFES,≤ 0.2
12,AIAM,≤ 0.2
13,PWLV,≤ 0.2
14,DTED,≤ 0.2
15,ITFF,≤ 0.2
16,GDKY,≤ 0.2
17,RCYI,≤ 0.2
18,RFIH,≤ 0.2
19,MIVC,≤ 0.2
20,HGQR,≤ 0.2
21,QSGH,≤ 0.2
22,YVYR,≤ 0.2
23,YEVI,≤ 0.2
24,DNML,≤ 0.2

row,Variant,one-hybrid fitness for binding parS DNA
1,VHNT,≤ 0.2
2,RYVT,0.716
3,RCKC,0.816
4,GARS,≤ 0.2
5,WALY,≤ 0.2
6,MVTK,≤ 0.2
7,PCPH,≤ 0.2
8,MMAD,≤ 0.2
9,VLNN,≤ 0.2
10,RERF,≤ 0.2
11,VDVP,≤ 0.2
12,LEIW,≤ 0.2
13,GLPT,≤ 0.2
14,PRKE,≤ 0.2
15,RGAV,≤ 0.2
16,AIRA,≤ 0.2
17,MCLR,≤ 0.2
18,PSPQ,≤ 0.2
19,KETW,≤ 0.2
20,GYTG,≤ 0.2
21,RHHL,≤ 0.2
22,HTVT,≤ 0.2
23,NTLT,≤ 0.2
24,RRKS,0.684

row,Variant,one-hybrid fitness for binding parS DNA
1,CKKF,≤ 0.2
2,LWRD,≤ 0.2
3,NQHT,≤ 0.2
4,IGLE,0.203
5,RIWP,0.223
6,GNAV,≤ 0.2
7,HCWC,≤ 0.2
8,SQLE,≤ 0.2
9,RRDW,≤ 0.2
10,SPHV,≤ 0.2
11,GLSG,≤ 0.2
12,FKRV,≤ 0.2
13,KMKG,≤ 0.2
14,ARSH,≤ 0.2
15,QRVS,≤ 0.2
16,DGLT,≤ 0.2
17,CACV,≤ 0.2
18,PMEA,≤ 0.2
19,QKVS,≤ 0.2
20,TESC,≤ 0.2
21,NKYS,≤ 0.2
22,RTSQ,≤ 0.2
23,SLTC,≤ 0.2
24,VKKY,≤ 0.2

row,Variant,one-hybrid fitness for binding parS DNA
1,HNKA,≤ 0.2
2,LLHT,≤ 0.2
3,RRET,0.674
4,AQRM,≤ 0.2
5,THPF,≤ 0.2
6,DQSK,≤ 0.2
7,GKWN,≤ 0.2
8,HVYY,≤ 0.2
9,DQKI,≤ 0.2
10,IRAG,≤ 0.2
11,APEV,≤ 0.2
12,WTSY,≤ 0.2
13,FMNL,≤ 0.2
14,SRRA,≤ 0.2
15,AIHT,≤ 0.2
16,EAHM,≤ 0.2
17,RWDV,≤ 0.2
18,KKTQ,≤ 0.2
19,GSRT,≤ 0.2
20,SRYY,≤ 0.2
21,HTMW,≤ 0.2
22,LYNT,≤ 0.2
23,SCVS,≤ 0.2
24,IDMR,≤ 0.2

row,Variant,one-hybrid fitness for binding parS DNA
1,QIFI,≤ 0.2
2,DHNT,0.279
3,LFHR,≤ 0.2
4,HQAS,≤ 0.2
5,QKIW,≤ 0.2
6,YSMG,≤ 0.2
7,KRYY,≤ 0.2
8,PKVV,≤ 0.2
9,VKWS,≤ 0.2
10,KVRV,≤ 0.2
11,WFED,≤ 0.2
12,KLLT,≤ 0.2
13,SIMW,≤ 0.2
14,QEGR,≤ 0.2
15,AGCG,≤ 0.2
16,QFKK,≤ 0.2
17,RENY,≤ 0.2
18,DGPV,≤ 0.2
19,EAKD,≤ 0.2
20,PRMR,≤ 0.2
21,RHEA,0.512
22,RSYT,0.846
23,ANSP,≤ 0.2
24,HPDR,≤ 0.2

row,Variant,one-hybrid fitness for binding parS DNA
1,EIPG,≤ 0.2
2,STLS,≤ 0.2
3,YKFR,≤ 0.2
4,TPLI,≤ 0.2
5,MRDI,≤ 0.2
6,PYHD,≤ 0.2
7,RIKE,≤ 0.2
8,NECS,≤ 0.2
9,FYTC,≤ 0.2
10,AKEC,≤ 0.2
11,PWNC,≤ 0.2
12,WRSE,≤ 0.2
13,FLED,≤ 0.2
14,AICR,≤ 0.2
15,QHMR,≤ 0.2
16,YQPF,≤ 0.2
17,CCEE,≤ 0.2
18,WANT,≤ 0.2
19,WHMC,≤ 0.2
20,SFDG,≤ 0.2
21,INMT,≤ 0.2
22,NHPG,≤ 0.2
23,AANA,≤ 0.2
24,ALER,≤ 0.2

row,Variant,one-hybrid fitness for binding parS DNA
1,QTRQ,≤ 0.2
2,KMLT,≤ 0.2
3,PKTC,≤ 0.2
4,AKIT,≤ 0.2
5,AEAW,≤ 0.2
6,DSNS,≤ 0.2
7,KADD,≤ 0.2
8,ILCR,≤ 0.2
9,WHIR,≤ 0.2
10,GVPW,≤ 0.2
11,IGWR,≤ 0.2
12,RYMQ,≤ 0.2
13,TIWL,≤ 0.2
14,RMAW,0.235
15,LMIS,≤ 0.2
16,CVSC,≤ 0.2
17,QWRM,≤ 0.2
18,MHYV,≤ 0.2
19,TKKH,≤ 0.2
20,STVR,≤ 0.2
21,YHHS,≤ 0.2
22,HMTS,≤ 0.2
23,REAW,≤ 0.2
24,YIFD,≤ 0.2

row,Variant,one-hybrid fitness for binding parS DNA
1,IYST,≤ 0.2
2,YVPS,≤ 0.2
3,DHVT,≤ 0.2
4,EGTW,≤ 0.2
5,LMQL,≤ 0.2
6,PHRH,≤ 0.2
7,EVDL,≤ 0.2
8,STYC,≤ 0.2
9,NIKH,≤ 0.2
10,LVEG,≤ 0.2
11,CVYS,≤ 0.2
12,ERSN,≤ 0.2
13,LGLK,≤ 0.2
14,PQVS,≤ 0.2
15,QSSW,≤ 0.2
16,CPMG,≤ 0.2
17,VSTG,≤ 0.2
18,QAMH,≤ 0.2
19,AYGT,≤ 0.2
20,TMYG,≤ 0.2
21,APND,≤ 0.2
22,GRNY,≤ 0.2
23,LMKC,≤ 0.2
24,SMIV,≤ 0.2

row,Variant,one-hybrid fitness for binding parS DNA
1,CNHG,≤ 0.2
2,ARCD,≤ 0.2
3,TALP,≤ 0.2
4,QTVP,≤ 0.2
5,PAPT,≤ 0.2
6,GAKS,≤ 0.2
7,QLYR,≤ 0.2
8,LYSH,≤ 0.2
9,SMNT,≤ 0.2
10,KTQC,≤ 0.2
11,CGAA,≤ 0.2
12,APGN,≤ 0.2
13,YNGV,≤ 0.2
14,KQVS,≤ 0.2
15,KFWG,≤ 0.2
16,CTGL,≤ 0.2
17,ICRG,≤ 0.2
18,VRTS,≤ 0.2
